# From patent US8481501B2 (priority 2004, dated 2013)
# Like-named read-outs stand apart in the source and are kept apart here.
# Legend:
# mu opioid receptor [1] = biological target: T1, mu opioid receptor (Homo sapiens, UniProt P35372); experiment: biochemical; design: expressed in transfected cells; host or cells: transfected cells; details: for Emax: read-out: mu % stimulation
# mu opioid receptor [2] = biological target: T1, mu opioid receptor; design: expressed in transfected cells; host or cells: transfected cells; details: Table 5, data taken from MacDougall et al., cited from earlier work; for Ki: read-out: Ki μ
# mu opioid receptor [3] = biological target: T1, mu opioid receptor; design: expressed in transfected cells; host or cells: transfected cells; details: cited from earlier work; for μ Emax: Table 6, data from reference 6; for efficacy (Emax) at the μ receptor: value, reference compounds
# mu opioid receptor [4] = biological target: T1, mu opioid receptor; experiment: biochemical
# [5] = Table 2, maximal stimulation relative to control
# T1 sequence (P35372 whole entry): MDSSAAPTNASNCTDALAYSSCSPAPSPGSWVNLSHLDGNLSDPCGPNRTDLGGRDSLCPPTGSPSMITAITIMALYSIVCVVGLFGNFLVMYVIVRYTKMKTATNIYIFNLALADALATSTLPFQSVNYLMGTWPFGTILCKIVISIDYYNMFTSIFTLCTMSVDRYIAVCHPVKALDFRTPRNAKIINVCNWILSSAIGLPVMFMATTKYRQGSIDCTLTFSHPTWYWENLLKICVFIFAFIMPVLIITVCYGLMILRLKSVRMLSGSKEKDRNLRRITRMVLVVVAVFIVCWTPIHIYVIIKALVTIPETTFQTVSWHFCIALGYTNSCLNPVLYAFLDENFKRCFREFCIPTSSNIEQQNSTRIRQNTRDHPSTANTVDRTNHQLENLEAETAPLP
Compound,Emax (mu opioid receptor [1]; [5]),"EC50 (mu opioid receptor [1]; Table 2, read-out: mu EC50)",other results
"COc1ccc2c3c1OC1C(SC4O[C@H](C(=O)O)[C@@H](O)[C@H](O)[C@H]4O)C=CC4C(C2)N(C)CCC341 (stereo partly drawn) [4c, Codeine 6β-S-glucuronide]",,,mu EC50 (mu opioid receptor [1]; Table 2): flat; mu % stimulation (mu opioid receptor [1]; [5]): flat
"CN1CCC23c4c5ccc(O)c4OC2C(NC(=O)CC2O[C@H](C(=O)O)[C@@H](O)[C@H](O)[C@H]2O)C=CC3C1C5 (stereo partly drawn) [11a, 6β-(α-Glucuronosyl)acetamidomorphine]",44.5 ± 7.1%,114 ± 5.55 nM,
"CN1CCC23c4c5ccc(O)c4OC2C(NC(=O)Cc2cccs2)C=CC3C1C5 (stereo not drawn) [13h, 6β-(Thiophen-2′-yl)acetamidomorphine]",95.8 ± 19.3%,6 ± 2.1 nM,
"COc1cccc(C(=O)NC2CCC3(O)C4Cc5ccc(O)c6c5C3(CCN4CC3CC3)C2O6)c1 (stereo not drawn) [6d, 6-(3′-Methoxy)benzamido-14-hydroxy-17-(cyclopropylmethyl)nordesmorphine]",,,"Emax (mu opioid receptor [1]; Table 8): 20.6 ± 1.5%; EC50 (mu opioid receptor [1]; Table 8, read-out: mu EC50): 1.2 ± 0.6 nM"
"CN1CCC23c4c5ccc(O)c4OC2C(NC(=O)c2ccc(Cl)c(Cl)c2)C=CC3C1C5 (stereo not drawn) [13g, 6β-(3′,4′-Dichloro)benzamidomorphine]",95.5 ± 10.5%,0.1 nM,
"COC(=O)[C@H]1OC(SC2C=CC3C4Cc5ccc(OC)c6c5C3(CCN4C)C2O6)[C@H](OC(C)=O)[C@@H](OC(C)=O)[C@@H]1OC(C)=O (stereo partly drawn) [3e, 6β-S-(Methyl-2′,3′,4′-tri-O-acetyl-β-D-glucopyranosyluronate)codeine]",19.3 ± 0.3%,732 ± 47.1 nM,
"CN1CCC23c4c5ccc(O)c4OC2C(SC2O[C@H](C(=O)O)[C@@H](O)[C@H](O)[C@H]2O)C=CC3C1C5 (stereo partly drawn) [4a, Morphine-6β-S-D-glucuronide]",46.6%,90.6 ± 22.9 nM,Receptor selectivity δ/μ (mu opioid receptor [2]): 3.6; Receptor selectivity κ/μ (mu opioid receptor [2]): 33; Ki (mu opioid receptor [2]): 8.7 ± 0.9 nM; mu % stimulation (mu opioid receptor [1]; [5]): 46.6 ± 10.1%; μ Emax (mu opioid receptor [3]): 46.6 ± 10.1; efficacy (Emax) at the μ receptor (mu opioid receptor [3]): 46.6%
CN1CC[C@]23c4c5ccc(O)c4O[C@H]2[C@H](NC(=O)C[C@@H]2O[C@H](COCc4ccccc4)[C@@H](OCc4ccccc4)[C@H](OCc4ccccc4)[C@H]2OCc2ccccc2)C=C[C@H]3[C@H]1C5 [compound 11],,,"μ Emax (mu opioid receptor [1]; Table 6, Example 33): 36.0 ± 11.2; EC50 (mu opioid receptor [1]; Table 6, Example 33, read-out: μ EC50): 623 ± 9.2 nM; agonist/antagonist character at the mu receptor (mu opioid receptor [1]; based on [35S]GTPγS binding): partial agonist"
"COC(=O)[C@H]1OC(CC(=O)NC2C=CC3C4Cc5ccc(O)c6c5C3(CCN4C)C2O6)[C@H](OC(C)=O)[C@@H](OC(C)=O)[C@@H]1OC(C)=O (stereo in doubt) [compound 10, 6α-(Methyl 2′,3′,4′-tri-O-acetyl-β-D-glucopyranosyluronate)acetamido-morphine]",104 ± 1.2%,9.4 ± 3.2 nM,
COc1ccc2c3c1OC1C(NC(=O)CC4O[C@H](C(=O)O)[C@@H](O)[C@H](O)[C@H]4O)C=CC4C(C2)N(C)CCC341 (stereo partly drawn) [11b],27.1 ± 3.4%,672.3 ± 6.4 nM,
COC(=O)[C@H]1OC(CC(=O)NC2C=CC3C4Cc5ccc(OC)c6c5C3(CCN4C)C2O6)[C@H](OC(C)=O)[C@@H](OC(C)=O)[C@@H]1OC(C)=O (stereo partly drawn) [9b],96.8 ± 8.22%,83.9 ± 4.3 nM,
"O=C(C[C@@H]1O[C@H](COCc2ccccc2)[C@@H](OCc2ccccc2)[C@H](OCc2ccccc2)[C@H]1OCc1ccccc1)NC1CC[C@@]2(O)[C@H]3Cc4ccc(O)c5c4[C@@]2(CCN3CC2CC2)[C@H]1O5 (stereo partly drawn) [compound 5, 6-acetamido-2,3,4,6-tetra-O-benzyl-D-glucopyranosyl-14-Hydroxy-17-(cyclopropylmethyl)nordesmorphine]",,,"Emax (mu opioid receptor [1]; Table 8): 21.4 ± 0.5%; EC50 (mu opioid receptor [1]; Table 8, read-out: mu EC50): 9.7 ± 0.5 nM"
"CN1CCC23c4c5ccc(O)c4OC2C(SC2O[C@H](CO)[C@@H](O)[C@H](O)[C@H]2O)C=CC3C1C5 (stereo partly drawn) [4b, 6β-Thiomorphine-6β-S-D-glucopyranoside]",64.5%,91.5 ± 23.4 nM,Ki (mu opioid receptor [2]): 5.4 ± 0.8 nM; mu % stimulation (mu opioid receptor [1]; [5]): 64.5 ± 0.5%; μ Emax (mu opioid receptor [3]): 64.5 ± 0.5
"CN(C)c1cccc(C(=O)NC2CCC3(O)C4Cc5ccc(O)c6c5C3(CCN4CC3CC3)C2O6)c1 (stereo not drawn) [6c, 6-(3′-dimethylamino)benzamido-14-hydroxy-17-(cyclopropylmethyl)nordesmorphine]",,,Kb (mu opioid receptor [4]): 0.457 nM; EC50 (mu opioid receptor [1]): 4.6 ± 0.9 nM; Emax (mu opioid receptor [1]): 19.3 ± 0.1%
"CC(=O)OC[C@H]1OC(SC2C=CC3C4Cc5ccc(OC(C)=O)c6c5C3(CCN4C)C2O6)[C@H](OC(C)=O)[C@@H](OC(C)=O)[C@@H]1OC(C)=O (stereo partly drawn) [3c, 3-O-Acetyl-6β-S-(2′,3′,4′,5′-tetra-O-acetyl-β-D-glucopyranosyl)-6β-thiomorphine]",44.1 ± 4.9%,4790 ± 1620 nM,
"CN1CCC23c4c5ccc(O)c4OC2C(NC(=O)c2cccc([N+](=O)[O-])c2)C=CC3C1C5 (stereo not drawn) [13f, 6β-(3′Nitro)benzamidomorphine]",95.5 ± 7.5%,1.9 ± 0.16 nM,
"CN1CCC23c4c5ccc(O)c4OC2C(NC(=O)c2cccc(C(=O)O)c2)C=CC3C1C5 (stereo not drawn) [compound 14, 6β-(3′Carboxy)benzamidomorphine]",71 ± 8%,65.1 ± 21.8 nM,
"O=C(Cc1cccs1)NC1CCC2(O)C3Cc4ccc(O)c5c4C2(CCN3CC2CC2)C1O5 (stereo not drawn) [6e, 6-(Thiophen-2′-yl)acetamidomido-14-hydroxy-17-(cyclopropylmethyl) nordesmorphine]",,,EC50 (mu opioid receptor [1]): 5.2 ± 1.6 nM; Emax (mu opioid receptor [1]): 16.1 ± 1.9%
"COC(=O)c1cccc(C(=O)NC2C=CC3C4Cc5ccc(O)c6c5C3(CCN4C)C2O6)c1 (stereo not drawn) [13e, 6β-(3′-Carbomethoxy)benzamidomorphine]",98.1 ± 7.9%,,"agonist/antagonist character at the mu receptor (mu opioid receptor [1]; based on [35S]GTPγS binding): potent full agonist; EC50 (mu opioid receptor [1]; value, read-out: EC50 at μ, stimulation of [35S]GTPγS binding): 2.4 nM"
Dihydromorphine-6-β-acetamidoglucose [compound 3],,,agonist/antagonist character at the mu receptor (mu opioid receptor [1]): full agonist; efficacy (Emax) at the μ receptor (mu opioid receptor [1]): 75%; μ Emax (mu opioid receptor [1]): 75.2 ± 3.6; EC50 (mu opioid receptor [1]; read-out: μ EC50): 37.2 ± 0.5 nM
"CN1CCC23c4c5ccc(O)c4OC2C(NC(=O)c2ccccc2)C=CC3C1C5 (stereo not drawn) [13d, 60-Benzamidomorphine]",90.5 ± 9.5%,5.5 ± 0.9 nM,
"CC(=O)OC[C@H]1OC(SC2C=CC3C4Cc5ccc(O)c6c5C3(CCN4C)C2O6)[C@H](OC(C)=O)[C@@H](OC(C)=O)[C@@H]1OC(C)=O (stereo partly drawn) [3d, 6-βS-(2′,3′,4′,5′-Tetra-O-acetyl-β-D-glucopyranosyl)-6β-thiomorphine]",76%,33.7 ± 11.3 nM,mu % stimulation (mu opioid receptor [1]; [5]): 76.0 ± 3.0%
"COc1cccc(CC(=O)NC2C=CC3C4Cc5ccc(O)c6c5C3(CCN4C)C2O6)c1 (stereo not drawn) [13a, 6β-(3-Methoxyphenyl)acetamidomorphine]",99 ± 4%,1.7 ± 0.17 nM,
"CN1CCC23c4c5ccc(O)c4OC2C(OC2O[C@H](C(=O)O)[C@@H](O)[C@H](O)[C@H]2O)C=CC3C1C5 (stereo partly drawn) [M6G, Morphine-6-glucuronide, reference compound]",,,Receptor selectivity δ/μ (mu opioid receptor [2]): 12.5; Receptor selectivity κ/μ (mu opioid receptor [2]): 316; EC50 (mu opioid receptor [1]): 72.3 ± 26.7 nM; Emax (mu opioid receptor [1]): 45 ± 5%; μ Emax (mu opioid receptor [3]): 45.0 ± 5.0; efficacy (Emax) at the μ receptor (mu opioid receptor [3]): 45%
"COc1ccc(CC(=O)NC2C=CC3C4Cc5ccc(O)c6c5C3(CCN4C)C2O6)cc1 (stereo not drawn) [13b, 6β-(4-Methoxyphenyl)acetamidomorphine]",72.5 ± 14.5%,4.8 ± 2.05 nM,
"O=C(CC1OC(CO)C(O)C(O)C1O)NC1CCC2(O)C3Cc4ccc(O)c5c4C2(CCN3CC2CC2)C1O5 (stereo not drawn) [6a, 14-Hydroxy-17-(cyclopropylmethyl)nordesmorphine-6-acetamidoglucose]",,,"Emax (mu opioid receptor [1]; Table 8): 15.8 ± 1.6%; EC50 (mu opioid receptor [1]; Table 8, read-out: mu EC50): 42.3 ± 5.4 nM; agonist/antagonist character at the mu receptor (mu opioid receptor [1]; based on [35S]GTPγS binding): strong antagonist"
"COc1cccc(C(=O)NC2C=CC3C4Cc5ccc(O)c6c5C3(CCN4C)C2O6)c1 (stereo not drawn) [13c, 6β-(3-Methoxy)benzamidomorphine]",87.5 ± 6.5%,2.8 ± 0.24 nM,
"COc1ccc2c3c1OC1C(SC4O[C@H](CO)[C@@H](O)[C@H](O)[C@H]4O)C=CC4C(C2)N(C)CCC341 (stereo partly drawn) [4d, 6β-Thiocodeine-6β-S-D-glucose]",42 ± 6%,1060 ± 22 nM,
"COc1ccc2c3c1OC1C(SC4O[C@H](COC(C)=O)[C@@H](OC(C)=O)[C@H](OC(C)=O)[C@H]4OC(C)=O)C=CC4C(C2)N(C)CCC341 (stereo partly drawn) [3f, 6-S-(2′,3′,4′,5′-Tetra-O-acetyl-β-D-glucopyranosyl)6β-thiocodeine]",41.9 ± 2.1%,994 ± 13.3 nM,
